B1: LINE1-mini (parent)
chain: GGCAGAGCUCAACACAGCGUGGCAAAGUGGCUGUGGCUAGACUGCC

The source gives no read counts; variants with many changes may rest on few reads.

The series covers variants of B1. Kind of series: self-cleavage, relative activity (ratio to wild type); higher = more cleavage; in vitro, sequencing; the parent is a self-cleaving ribozyme.
With C15A C18A U34A C37U, the self-cleavage was found to be 0.
Under A14U C15A G33C stands 0.01; under A14U G22U U38A, 0.49; under C15A G21C G29A G36A, 0.02.
As for A14U G22C G29A G40C, the self-cleavage was found to be 0.11.
To C15A A16C A24G belongs 0.05; to A14U A25C G29C G40U, 0.05; to C15A G35C C42U, 0.
Under C15A G35C C42G stands 0.04; under C15A A24C A26U A39C, 0.48.
Regarding C15A A25C U32G, the self-cleavage was 0.03.
To A14U G19C G30U belongs 0.14; to A14U C15A G44A, 0.05.
Under C15A G17A G21U stands 0.01; under C15A C23U G40A C45U, 0.03; under A14U G17C G40U, 0.05.
Under C15A C23G G29A G40U stands 0.02; under C15A G29C U38A A41G, 0.06.
Regarding A14U G40C C46A, the self-cleavage stood at 0.05.
For A14U G22U G30C, the self-cleavage turned out to be 0.12.
To C15A C31A G35U belongs 0.03; to C15A G29A G36A U43G C45G, 0.
For A14U G22A U38C, the self-cleavage amounted to 0.09.
Under C15A G36C C37U stands 0.04; under C15A G17A G19U U20A G22C, 0.1.
With A14U U32C G40C, the self-cleavage is 0.03.
To C15A G17U C45A belongs 0.02; to A14U G33C U34A, 0.08.
As to C15A A24G G27A, the self-cleavage came out at 0.04.
Under C15A A25C C45A stands 0.02; under C15A C18A A24C, 0.19; under C15A U20A U28A C45U, 0.14.
Under A14G U38A G44C stands 0.
Under C15A U20A G30U C31A U32A C45G stands 0.07; under C15A U20A G21C, 0.15; under C15A C18U C37A, 0.06.
With C15A C18U C37G, the self-cleavage was 0.
Under A14U C31A C42A stands 0.05; under C15A G17C G21U, 0.09; under C15A A24C U28G G29C, 0.04.
To A14U G19A G29U belongs 1.46; to A14U G33A A41C, 0.05.
For A14U G29A A39C G44A, the self-cleavage amounted to 0.03.
Under A14U G27A C31A G35U stands 0.09; under A14U C31A G40U, 0.08.
Under A14U A24G U43A stands 0.17; under C15A G17C C45U C46A, 0.04.
Under C15A G21A A25G stands 0.14.
On to C15A G19U G30U, for which the self-cleavage was 0.08.
Under C15A A16U U32A G44C stands 0.03; under A14U G22C C23A, 0.29.
For the variant C15A G17C A26G G44C, the self-cleavage turned out to be 0.03.
C15A G17A A39C G44U: the self-cleavage was 0.02.
Under C15A C18G C46G stands 0.04; under A14U C15A G27C G29C, 0.13.
Under A14U G19A A25U G35A G40U stands 0.06.
Under C15A G19A G27U G40U stands 0.09; under C15A A26G U38G, 0.04; under C15A G17C A24U, 0.15.
On to C15A G17A U20G, for which the self-cleavage was 0.18.
Under A14U C18U A41C stands 0.08; under A14U U20G C42U C46U, 0.02; under C15A A26U C42U, 0.02.
Under C15A C23A A24G stands 0.02; under A14U A25U A39U, 0.14.
Under C15A G22C C31U A39C G44C stands 0.01; under C15A G19A G29A C46U, 0.06; under A14U A16G U34C, 0.
Turning to A14U G21A U32A, the self-cleavage turned out to be 0.05.
Under C15A G40A C46G stands 0.03; under C15A G19C C23G G40U, 0.02; under A14U G35C A41G, 0.15.
To A14U U38C G40C belongs 0; to C15A G21U U38A, 0.23.
Under C15A A24C A39C stands 0.02.
For C15A G19A U28A, the self-cleavage is 0.03.
Under C15A G19U G35C stands 0.08; under C15A G19C C42G, 0.07; under C15A A25U U32C, 0.05.
Turning to A14U G27C U32A C46U, the self-cleavage worked out at 0.02.
Under A14U C18U G30C stands 0.03; under A14G U34G U38G, 0.02; under A14U G21U A24C A39U, 0.09.
For A14U C18U U34C, the self-cleavage is 0.02.
To C15A A24G U34A belongs 0.09; to C15A C18A G19A, 0.03.
To C15A G33A C37G A41C belongs 0.01; to A14U C15A G21A G27U, 0.2.
Under A14U A25C G29C U38A U43A stands 0.
As for C15A A26U G27C C37G, the self-cleavage worked out at 0.01.
As to A14U A41G G44A, the self-cleavage is 0.01.
Consider C15A G21A G27C U43C, for which the self-cleavage was determined as 0.07.
For the variant C15A G30U A39C, the self-cleavage stood at 0.07.
For the variant C15A G27A G40A G44C, the self-cleavage is 0.03.
Under C15A A26U G35U C46A stands 0.04.
Under C15A G27U C45U stands 0.07.
To A14U A16C U20C C31A U43C belongs 0.02.
As to A14U G30U C37U, the self-cleavage was found to be 0.02.
C15A U20A C31A U38C: the self-cleavage was determined as 0.01.
Under A14U C18U G29A G33U stands 0.05; under A14U U28G U38C, 0.11; under A14U G35U A41U, 0.16.
As to C15A G19A G40C, the self-cleavage amounted to 0.03.
Under A14U A16U U43C C46A stands 0.04; under C15A C23A G35C, 0.05; under C15A G21A G22U U28G C42U, 0.01.
Under C15A C23U G33A C37A U38G stands 0.02; under C15A C42A C46U, 0.03.
To A14U A25U G33U belongs 0.06; to C15A G22A G36U, 0.1.
Regarding C15A A26U C45U, the self-cleavage was determined as 0.03.
Under C15A C23A A25G U32C C45G stands 0.01; under A14U G17U U20G G33C, 0.01.
Under C15A G36U U43G stands 0.
To A14U A41G U43G belongs 0.
As for A14U G19A U38G A39C, the self-cleavage worked out at 0.01.
With C15A G22A C23U A24U G40C, the self-cleavage was 0.04.
Regarding C15A A26U U28C A39U, the self-cleavage amounted to 0.08.
To C15A A16G C23U C42G G44U belongs 0.04; to A14U C15G G29A G40U, 0.01.
To C15A A24G G30C G35C belongs 0.03; to A14U G17C C23A C31G, 0.06.
To A14U A39U A41U belongs 0.02.
Turning to A14U U34C U38C, the self-cleavage came out at 0.1.
Under C15A G33C C45A stands 0.04.
Regarding A14U A25G G36U, the self-cleavage was 0.01.
To C15A G21C A26U C31G belongs 0.03; to C15A G19A G29C, 0.07; to A14U A16C G30U, 0.08.
Turning to C15A G29A U34A C37G G40U, the self-cleavage is 0.02.
To C15A C18A G35C belongs 0.04; to A14U A16C G27U, 0.17; to C15A G17A G19A, 0.1.
Under C15A C23U G29U C46A stands 0.02; under A14U G33A G35U G40C C45U, 0.04; under C15A C23A C42A U43A, 0.01.
To A14U U32G C37U C42U belongs 0; to C15A A16U C23U, 0.1.
As for C15A G40U C45A, the self-cleavage turned out to be 0.06.
To C15A G22A G30A belongs 0.07; to C15A G27U U28G A41C G44C, 0.03.
On to A14U U20G C42G C45U, for which the self-cleavage was 0.07.
A14U A24U G36U: the self-cleavage turned out to be 0.03.
For the variant C15A G33A U34G G40A, the self-cleavage amounted to 0.02.
Take A14U C15U C18A G29C: the self-cleavage was 0.04.
Under C15A C23A G44A stands 0.07; under C15A A26U A39U A41C, 0.06; under C15A G30U U32G U38A, 0.02.
Under A14U G17U G33U stands 0.03.
To A14U G21A U38G belongs 0.01; to C15A C23A A26C U38A A39U, 0.93; to A14U C15G U28C, 0.02.
With C15A C23U A25C G33C G35U C37U C42U, the self-cleavage stood at 0.
Take A14U A41U U43A: the self-cleavage came to 0.
As for C15A C37A G40C, the self-cleavage was 0.05.
Under C15A A24C C31A U34C stands 0.03.
Under A14U G19U G30A U32G stands 0.11.
Under C15A A26C G35A stands 0; under A14U G21A A41U, 0.15; under A14U A16U G22U A26U G30U U32C, 0.2.
Take C15A U20A G27U A39U: the self-cleavage was 0.01.
To C15A A16U G40A C46G belongs 0.03; to A14U U20A U38C C46U, 0.12; to A14U G35U U38A, 0.01.
Under A14U C23A G33C G35A stands 0.02; under A14U U20G G27C A41C, 0.03; under C15A A16C A25C, 0.11.

Source of the values: the RNAGym collection of RNA variant scans (doi:10.7554/elife.90254).
